Experimental data as given in PubChem BioAssay AID1508624 (National Center for Advancing Translational Sciences (NCATS), 2021).
In all, about 48,000 compounds went through this assay and about 120 (0.25%) were called active. About 4% were inconclusive and are not listed. Calls come from the whole dose curve; as a rule, active = well fitted activation curve with a large enough effect; inconclusive = small, poorly fitted or top-dose-only effect, or another doubt; inactive = no such curve, though single readings can be large or run the other way. The list shows a part of the results.

assay: Primary qHTS for Identification of Small Molecule Activators of Huntingtin-Antisense Promoter Activity; settings: HEK293 HTT-AS promoter firefly luciferase reporter, 24 h; series mostly up to 57.5 µM; activity change, positive = activation: at the top concentration; note: nearly all actives have a fitted effect of over 55% in size
How it was run: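 Firefly luciferase readout (Dual-Glo, 10 min RT) after 24 h, 37 °C compound exposure (final up to 57.5 uM) of HEK293 reporter cells cultured 24 h beforehand; PTC124 at 50 uM final as control inhibitor; activity scaled vehicle 0%, zero RLU -100%.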
Potency is the fitted concentration of half-maximal effect.

Activity change, positive = activation, inactive:
COc1ccccc1NC(=O)C1=C(C)Nc2nc(-c3ccco3)nn2C1c1ccccc1F (stereo unspecified) -14.3%
Cn1nnnc1SCCNCc1ccc(Cl)c(Cl)c1 -9.11%
CCCc1cc(=O)[nH]c(Nc2ccc(OCC)cc2)n1 -21.8%
Cc1cccc(S(=O)(=O)c2cn(C)c3cc(N4CCN(c5ccccc5)CC4)c(F)cc3c2=O)c1 12%
Cc1ccc(Cn2c(C)c3cnn(CC(=O)NCCc4ccc(Cl)cc4)c(=O)c3c2C)cc1 -13.1%
COc1cccc(CCNC(=O)c2cnc3sc(N4CCOCC4)nn3c2=O)c1 -6.42%
CCc1ccc(NC(=O)Cn2cc(S(=O)(=O)c3ccc(F)cc3)c(=O)c3cc(OC)ccc32)cc1 -41.8%
CC(=O)c1ccc(NC(=O)CCc2c(C)nn(-c3ccc4nnc(C)n4n3)c2C)cc1 -7.78%
COc1ccc(NC(=O)C2CCC(CNS(=O)(=O)c3ccc(Br)s3)CC2)c(OC)c1 (stereo unspecified) -23.7%
CC(C)CC(C(=O)NCC1CCN(Cc2ccc(F)cc2)CC1)N1Cc2ccccc2C1=O (stereo unspecified) -6.19%
COc1cc(NC(=O)N2CCC(CN3CCCCCC3)CC2)cc(OC)c1OC -3.06%
O=C(CSc1nc(-c2ccccc2)nc2cc(=O)[nH]n12)Nc1ccccc1 -26.7%
CCc1nc(-c2ccc(C)c(S(=O)(=O)N3CCN(c4ccc(C(C)=O)cc4)CC3)c2)no1 -37.9%
Cc1ccccc1C(=O)N1c2ncnn2C2(CCCCC2)[C@@H]2CCCC[C@@H]21 -18%
COC(=O)C1=C(C)N(C(C)C)C(=O)C1(NC(=O)c1ccc(C(C)(C)C)cc1)C(F)(F)F (stereo unspecified) 6.77% [at 11.5 µM, percent change from vehicle, -100% = no light]
Cc1ccccc1Cn1c(=O)n(CCC(=O)NCc2ccco2)c(=O)c2sccc21 -10.3%
CC(C)Nc1nc2c(-c3cccc(Br)c3)nnn2c2ccccc12 22.5%
O=C(NCCn1cc(SCc2ccc(F)cc2)c2ccccc21)c1cccs1 -47.7%
CCn1cc(C(=O)N2CCN(c3cc(Cl)ccc3C)CC2)c(=O)c2cc(S(=O)(=O)N3CCCCC3)ccc21 -1.16% [at 11.5 µM, percent change from vehicle, -100% = no light]
COCCCN1C(=O)c2oc3ccccc3c(=O)c2C12C(=O)N(C)c1ccccc12 (stereo unspecified) -8.61%
COc1ccc(CC(=O)N2CCc3cc(OC)c(OC)cc3C2COc2ccc3c(C)cc(=O)oc3c2)cc1OC (stereo unspecified) 0%
O=C(COc1ccccc1F)Nc1ccc(OCc2cc(=O)n3ccccc3n2)cc1 12.4%
CCOc1ccc(NC(=O)CCc2c(C)nc3c(-c4ccccc4)c(C)nn3c2C)cc1 -21.3%
COC(=O)c1ccc(Cn2c(SCc3ccc(F)cc3)nc3ccncc32)cc1 -9.75%
O=c1ccc2cc(S(=O)(=O)Nc3ccc(OC(F)(F)F)cc3)ccc2[nH]1 -15.3%
Cc1ccc(CNC(=O)CSC2=Nc3ccccc3N=C(c3ccc(F)cc3)C2)cc1 -22.5%
COc1ccc(CNC(=O)c2ccc(NC(=O)N3CCSc4ncccc43)cc2)cc1 -5.34%
CCCNC(=O)CN1CCN(c2ccc(NC(=O)c3ccc(OC)cc3)cc2C(=O)O)CC1 0%
Cc1ccccc1C(=O)N1CCC(C(=O)Nc2ccc(F)cc2F)CC1 12.5%
Cc1nc(N2CCOCC2)c2c(C(=O)N3CCN(c4ccccc4)CC3)c(C)oc2n1 0.994%
CCOC(=O)c1cccc(NC(=O)NC(C)c2c(-n3cccc3)sc3c2CCN(C)C3)c1 (stereo unspecified) -23.6%
Cc1cc2c(cc3c(SCC(=O)Nc4ccc(Cl)cc4F)nncn32)o1 -11%
Cc1ccc2c(c1)c1c3n2CCN(C(=O)c2cccc(C(F)(F)F)c2)C3CCC1 (stereo unspecified) -32%
CCc1cccc(C)c1Nc1c(-c2ccsc2)nc2ncccn12 -25.6%
Cc1ccc(C)c(Cn2c3ccccc3c3cnn(CC(=O)NCCc4ccccc4)c(=O)c32)c1 3.3%
COc1ccc(N2CCN(Cc3nnc(-c4ccc5c(c4)OCO5)o3)CC2)cc1 1.53%
Cc1cccc(CNC(=O)CCCN2C(=O)CCn3nc(-c4cccn4C)cc32)c1 9.28%
Cc1ccc(-n2nc(C)c3nc(CCC(=O)Nc4cccc(F)c4)c(=O)n(C)c32)cc1 -4.03%
COc1ccc2c(c1)c(CC(=O)OCC(=O)O)c(C)n2C(=O)c1ccc(Cl)cc1
COc1ccc(CNC(=O)C2CCCN(c3nnc(C)c4c(C)n(-c5ccc(C)cc5)nc34)C2)cc1 (stereo unspecified) -18.2%
CCOc1c(Cl)cc(C(=O)N(Cc2ccc(N(C)C)cc2)Cc2ccco2)cc1Cl -12%
CCC1CN(C(=O)N2CCC(C(=O)N3CCN(c4ccccc4F)CC3)CC2)c2ccccc2O1 (stereo unspecified) -32.3%
CCC(Sc1nc2ncccc2o1)C(=O)Nc1ccc(OC)c(OC)c1 (stereo unspecified) -1.47%
Cc1ccc2c(=O)cc(C(=O)Nc3sc4c(c3C(=O)NCC3CCCO3)CCCC4)oc2c1 (stereo unspecified) 10.9% [at 11.5 µM, percent change from vehicle, -100% = no light]
COc1ccc(C2CC(=O)c3cc(-c4nc(-c5cccc(Cl)c5)cs4)c(=O)[nH]c3C2)cc1 (stereo unspecified) -8.78%
CSc1oc(-c2cccs2)nc1S(=O)(=O)c1ccc(Br)cc1 -8.98%
O=S(=O)(c1ccc(Cl)cc1Cl)n1ccnc1 -3.38%
CCOc1ccccc1N(C)C(=O)c1c2c(nc3ccccc13)C(=O)N(C1CCCCC1)C2 -17%
CC(C)CCn1c(=O)c2cccnc2n(CC(=O)Nc2ccccc2F)c1=O -26.6%
Cn1c2ccccc2c2cnn(CC(=O)Nc3ccccc3F)c(=O)c21 -9.03%
COCCc1ccc(OCC2CO2)cc1 (stereo unspecified) 2.97%
Cc1cc(C)cc(NC(=O)c2c(C)oc3nc(C)nc(N4CCCC4)c23)c1 -4.52%
CCOc1ccc(Nc2nn(-c3ccc(OC(F)(F)F)cc3)nc2C(C)=O)cc1 -12.9%
COc1cccc(Cn2c(-c3nonc3NC(C)=O)nc3ccccc32)c1 -40.9%
COc1ccccc1CNC(=O)CCNS(=O)(=O)c1ccc2c(c1)oc(=O)n2C -3.32%
CC(=O)OC[C@H]1O[C@@H](OC(C)=O)[C@H](OC(C)=O)[C@@H]1OC(C)=O 1.93%
CNC(=O)c1ccc2c(c1)N(Cc1ccccc1Cl)C(=O)c1ccccc1S2 -26.7%
O=C(COc1ccc(F)cc1)NCc1ccc2c(c1)CCN2C(=O)c1ccccc1 9.66%
Cc1cccc(NC(=O)c2sc3nc(-c4cc5ccc(O)cc5oc4=O)[nH]c(=O)c3c2C)c1 -21.2%
O=C(Cn1c(=O)nc(-c2ccccc2F)c2cc(Cl)ccc21)NCCCc1ccccc1 -16.2%
CC(=O)OC1C(C)OC(Oc2c(-c3ccc(O)cc3)oc3cc(O)cc(O)c3c2=O)C(O)C1OC(C)=O (stereo unspecified) 2.07%
COc1ccc2cc3[n+](cc2c1OC)CCc1cc2c(cc1-3)OCO2
Cc1cc(C)cc(NC(=O)C2CC(=O)N(c3ccccc3)C2)c1 (stereo unspecified) 9.9%
O=C(Nc1sc2c(c1C(=O)NCC1CCCO1)CCCC2)c1cc(=O)c2ccccc2o1 (stereo unspecified) 2.02%
O=C(CCn1c(=O)c2sccc2n(Cc2ccc(F)cc2Cl)c1=O)NCc1ccc2c(c1)OCO2 -2.96%
Cc1ccc(-c2nc3ccccc3o2)cc1NC(=O)Cc1ccc(Cl)cc1 -0.133%
COc1cc2c(cc1Cc1cccc(Cl)c1F)c(=O)c(C(=O)O)cn2[C@H](CO)C(C)C -30.6%
Cc1cccc(-c2nc(CN3CCCC(C(=O)NCCc4ccc(Cl)cc4)C3)c(C)o2)c1 (stereo unspecified) -46.4%
COC(=O)c1ccccc1NC(=O)CSc1nc(C)c(Cl)c(C)c1C#N 3.8%
Cc1ccc(-c2cc(C(=O)Oc3ccc(C#N)cc3)no2)cc1C 18.2%
CCCCCCCCCCOCC(O)CN (stereo unspecified) -11.8%
Cc1ccc2c(c1)c1c(c(=O)n(Cc3ccccc3)c(=O)n1CC(=O)Nc1ccccc1F)n2C -5.22%
Cc1cc(-c2ccc(C)c(S(=O)(=O)NCC3CCN(Cc4ccccc4F)CC3)c2)on1 -7.83%
O=C(Cn1ncc2c3ccccc3n(Cc3ccc(F)cc3)c2c1=O)NCc1ccccn1 -17.7%
Cc1ccc(SCC(=O)Nc2ccc3oc(-c4cccc(Cl)c4)nc3c2)cc1 6.88%
O=C(NCc1ccccc1)C(=O)Nc1c2c(nn1-c1ccccc1)CSC2 -53.3%
COc1ccc(OC)c(CNCc2c(C(=O)O)n(Cc3cccc(F)c3)c3cc(OC)ccc23)c1 -30%
Cc1ccc(C(c2c(O)cc(C)n(Cc3ccco3)c2=O)N2CCC(C)CC2)cc1 (stereo unspecified) 9.32%
COc1ccc2c(c1)c1c(c(=O)n(-c3cccc(C)c3)c(=O)n1Cc1cccc(Cl)c1)n2C -20.8%
O=C(c1cc2c(=O)oc3ccccc3c2s1)N1CCN(c2ccccc2)CC1 2.96%
Cc1ccc(-n2nc(C)c3c(C)cc(=O)n(CC(=O)Nc4cccc(C)c4C)c32)cc1 -14.9%
O=C(Nc1cc2c(cc1C(=O)c1ccccc1Br)OCCO2)c1cccc(Cl)c1 -3.35%
COc1ccccc1CNc1ncnc2c1cnn2-c1ccc(C)cc1 -33.9%
CC1(C)OC2=C(C(=O)c3ccccc3C2=O)[C@H](NCc2ccccc2)[C@H]1O -92.6%
COc1ccc(-c2nn(-c3ccccc3)cc2C2NC(=O)NC(C)=C2C(=O)OC(C)C)cc1OC (stereo unspecified) -11.3%
Cc1ccc(-c2noc(-c3nnn(-c4cccc(C(F)(F)F)c4)c3N)n2)cc1 -1.74%
COc1ccc(N2C(=O)CSC23C(=O)N(Cc2cccc(F)c2)c2ccccc23)cc1Cl (stereo unspecified) -37.6%
O=S(=O)(c1ccc2nc(N3CCN(c4ccccc4F)CC3)ccc2c1)N1CCCCC1 -20.6%
COCCNC(=O)CCCn1c(SCC(=O)NCc2ccc(C)cc2)nc2c(sc3ccccc32)c1=O -1.38%
CCC(C)NC(=O)c1sc2nc(C)c(C(=O)Nc3ccc(C)cc3C)c(-c3ccc(NC(C)=O)cc3)c2c1N (stereo unspecified) -20.5%

Potency, active:
CCc1ccc(OCC(=O)Nc2ncn[nH]2)c(Br)c1 25.1 µM
